{"source": "PubChem BioAssay AID588591", "about": "(National Center for Advancing Translational Sciences (NCATS), 2011)", "note": "Several values for one entry are separate records, joined by “and”; a condition that tells them apart may be missing. Identical values can stand only once. About 4,700 (1.2%) of roughly 390,000 compounds were called active. The inconclusive results got no clear call from the source; some entries with a clear call stand among them for comparison. The call rests on the fitted dose curve; in most records, active means well fitted inhibition curve with a large enough effect; inconclusive means small, poorly fitted or top-dose-only effect, or another doubt; inactive means no such curve, though single readings can be large or run the other way. Potencies beside an inconclusive call are fits to weak or partial responses and may not hold up. On the % scale 0 is the no-effect control and ±100 the full control effect; potency means the concentration at half of the fitted maximal effect; tags describe the fitted curve by direction and shape.", "data": [{"molecular_target": "DNA polymerase eta (Homo sapiens) (UniProt Q9Y253)", "sequence (Q9Y253 whole entry, looked up)": "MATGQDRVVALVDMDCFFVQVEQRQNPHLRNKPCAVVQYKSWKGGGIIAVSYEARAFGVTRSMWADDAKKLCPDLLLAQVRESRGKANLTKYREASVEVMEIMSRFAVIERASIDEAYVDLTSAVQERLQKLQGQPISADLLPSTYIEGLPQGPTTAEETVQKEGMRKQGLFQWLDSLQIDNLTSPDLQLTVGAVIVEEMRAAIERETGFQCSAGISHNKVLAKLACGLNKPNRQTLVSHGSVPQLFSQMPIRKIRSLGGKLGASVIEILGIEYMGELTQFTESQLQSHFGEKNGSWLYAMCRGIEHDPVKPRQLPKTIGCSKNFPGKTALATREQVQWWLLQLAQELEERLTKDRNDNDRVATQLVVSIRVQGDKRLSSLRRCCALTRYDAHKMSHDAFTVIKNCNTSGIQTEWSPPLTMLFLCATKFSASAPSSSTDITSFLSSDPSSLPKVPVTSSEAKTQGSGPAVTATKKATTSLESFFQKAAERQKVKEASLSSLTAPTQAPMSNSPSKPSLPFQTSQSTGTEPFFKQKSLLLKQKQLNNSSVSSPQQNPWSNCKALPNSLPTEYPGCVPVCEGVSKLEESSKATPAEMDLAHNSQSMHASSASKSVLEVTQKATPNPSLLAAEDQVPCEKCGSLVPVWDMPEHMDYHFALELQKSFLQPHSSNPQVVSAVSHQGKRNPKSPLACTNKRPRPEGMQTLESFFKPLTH", "experiment": "qHTS for Inhibitors of Polymerase Eta", "conditions": "recombinant Pol eta, fluorescent DNA replication assay; series mostly up to 114 µM; activity change, negative = inhibition: at the top concentration", "method_in_brief": "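Fluorescent replication assay: 50 nM final substrate added after a 15 min room-temperature compound preincubation with 10 nM enzyme. Signal taken at 0 min and again at 10 min.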", "values": [{"compound": "Cc1cc(C)c2c(=O)n(CC(=O)Nc3ccc(Br)c(C)c3)sc2n1", "activity change, negative = inhibition": "inactive: 4.95%"}, {"compound": "CCc1ccc(N2C(=O)c3ccc4c5c(ccc(c35)C2=O)CC4)cc1", "Potency": "inconclusive: 20 µM [inhibitor, single point]"}, {"compound": "COc1cccc(C(=O)NCC(=O)OCC(=O)Nc2ncc(Cl)cc2Cl)c1", "Potency": "inconclusive: 50.1 µM [inhibitor, partial curve]"}, {"compound": "O=C(Nc1nc(-c2ccccc2)cs1)C1c2ccccc2Oc2ccccc21", "Potency": "inconclusive: 79.4 µM [inhibitor, partial curve, poor fit]"}, {"compound": "O=C(CC1S/C(=N/N=C/C=C/c2ccccc2)NC1=O)Nc1ccc(C(=O)O)cc1", "note": "(stereo unspecified)", "activity change, negative = inhibition": "inactive: -6.46%"}, {"compound": "Cc1ccc(S(=O)(=O)Nc2cc(=O)[nH]c(SCC(=O)Nc3ccccc3C(F)(F)F)n2)cc1", "activity change, negative = inhibition": "inactive: -13.8%"}, {"compound": "NC(=O)c1ccsc1NC(=O)COc1ccccc1", "Potency": "inconclusive: 79.4 µM [inhibitor, single point]"}, {"compound": "CN(C)CCN(Cc1ccc(Cl)cc1)c1ccccn1", "activity change, negative = inhibition": "inactive: -3.87%"}, {"compound": "CCc1nnc(NS(=O)(=O)c2ccc(NC(=S)NC(=O)/C=C/c3cccs3)cc2)s1", "Potency": "inconclusive: 50.1 µM [inhibitor, partial curve, poor fit]"}, {"compound": "Cc1ccc(C(=O)O)cc1-n1c(C)cc(C=O)c1C", "Potency": "active: 20 µM"}, {"compound": "Cc1ccc(NC(=O)Cn2c(=O)nc(-c3ccccc3F)c3cc(Cl)ccc32)c(Br)c1", "Potency": "inconclusive: 0.501 µM [inhibitor, partial curve, poor fit]"}, {"compound": "COC(=O)c1ccc(C(=O)Nc2ccc(N)cc2N)cc1", "Potency": "inconclusive: 35.5 µM [inhibitor, partial curve, poor fit]"}, {"compound": "CN(C)c1ccc(/C=C(\\C#N)c2nc3ccccc3c(=O)[nH]2)cc1", "Potency": "inconclusive: 89.1 µM [inhibitor, single point]"}, {"compound": "COCc1cc(=O)n2c(-c3ccc(C)cc3)n[nH]c2n1", "Potency": "inconclusive: 44.7 µM [inhibitor, partial curve]"}, {"compound": "Cc1ccc(NC(=O)CCl)c(C)c1", "activity change, negative = inhibition": "inactive: -3.27%"}, {"compound": "O=C(Nc1ccc(S(=O)(=O)Nc2ncccn2)cc1)c1cnc(Cl)c(Cl)c1", "Potency": "inconclusive: 22.4 µM [inhibitor, partial curve, poor fit]"}, {"compound": "O=[N+]([O-])c1ccccc1N=Nc1ccc(O)cc1O", "Potency": "inconclusive: 50.1 µM [inhibitor, partial curve]"}, {"compound": "CC1CN(C(=O)COC(=O)/C=C/c2cccc([N+](=O)[O-])c2)CC(C)O1", "note": "(stereo unspecified)", "activity change, negative = inhibition": "inactive: -13.1%"}, {"compound": "Cc1c(CCC(=O)NCCc2ccccc2F)c(=O)oc2cc(O)ccc12", "activity change, negative = inhibition": "inactive: -14.7%"}, {"compound": "COC(=O)C1CN(C(=O)c2cccc(OC(F)F)c2)c2ccccc2O1", "note": "(stereo unspecified)", "Potency": "inconclusive: 100 µM [inhibitor, single point]"}, {"compound": "Cc1ccc2nc(/C(C#N)=C/c3ccc(-c4ccc(F)cc4F)o3)[nH]c2c1", "Potency": "inconclusive: 56.2 µM [inhibitor, partial curve, poor fit]"}, {"compound": "C/C(N)=C(/C#N)C(=O)COC(=O)CCSc1ccccc1", "Potency": "inconclusive: 35.5 µM [inhibitor, single point]"}, {"compound": "COc1ccc(CN(Cc2ccc(C(=O)O)cc2)C(=S)Nc2cc(C)cc(C)c2)cc1OC", "Potency": "inconclusive: 79.4 µM [inhibitor, partial curve, poor fit]"}, {"compound": "CC1=C(C(=O)Nc2cccc(C(F)(F)F)c2)C(c2ccccn2)n2ncnc2N1", "note": "(stereo unspecified)", "activity change, negative = inhibition": "inactive: -22.1%"}, {"compound": "CCCN(C(=O)NCc1noc2ccc(C)cc12)c1ccc(Cl)c(Cl)c1", "activity change, negative = inhibition": "inactive: -16.2%"}, {"compound": "COc1cc2nc(N(CCCN(C)C)C(=O)c3ccc(S(=O)(=O)N4CCc5ccccc5C4)cc3)sc2cc1OC", "Potency": "inconclusive: 31.6 µM [inhibitor, single point]"}, {"compound": "Cc1cc(C2=NNC(=NCCc3ccccc3)SC2)c(C)n1CC1CCCO1", "note": "(stereo unspecified)", "activity change, negative = inhibition": "inactive: -15%"}, {"compound": "COc1ccccc1C(=O)NC(=S)Nc1ccc(Cc2ccncc2)cc1", "Potency": "inconclusive: 31.6 µM [inhibitor, partial curve, poor fit]"}, {"compound": "Cc1nc(SCC(=O)c2ccc(F)cc2)n[nH]1", "activity change, negative = inhibition": "inactive: -17.1%"}, {"compound": "CCc1ccc(C(=O)NNC(=S)Nc2ccc(S(N)(=O)=O)cc2)s1", "Potency": "inconclusive: 79.4 µM [inhibitor, partial curve, poor fit]"}, {"compound": "COc1ccccc1OCC(=O)N1CCCC(Nc2ccc(C)c(C)c2)C1", "note": "(stereo unspecified)", "Potency": "inconclusive: 89.1 µM [inhibitor, partial curve, poor fit]"}, {"compound": "COc1ccc(/C(N)=N/OC(=O)CC2CCCCC2)cc1", "Potency": "inconclusive: 5.01 µM [inhibitor, full curve, poor fit]"}, {"compound": "Cc1ccc(NC(=O)CN2C(=O)S/C(=C\\c3ccccn3)C2=O)cc1", "activity change, negative = inhibition": "inactive: -17.7%"}, {"compound": "O=C(O)c1ccc(-n2[nH]c3c(c2=O)CCCC3)cc1", "Potency": "active: 35.5 µM"}, {"compound": "COc1cc(OC)cc(C(=O)Nc2nnc(SCC(=O)NCC3CCCO3)s2)c1", "note": "(stereo unspecified)", "activity change, negative = inhibition": "inactive: -19.7%"}, {"compound": "COc1ccc2oc(C(=O)OCC(=O)Nc3cc(S(=O)(=O)N4CCOCC4)ccc3C)c(C)c2c1", "Potency": "inconclusive: 56.2 µM [inhibitor, partial curve, poor fit]"}, {"compound": "COc1cc(/C=C2\\C(=N)N3N=C(C)SC3=NC2=O)cc(Cl)c1OCCOc1ccc(NC(C)=O)cc1", "Potency": "active: 89.1 µM"}, {"compound": "O=C(Nc1ccnn1C1CCN(C2CCC2)CC1)c1ccccc1", "activity change, negative = inhibition": "inactive: -4.51%"}, {"compound": "CC(=O)[C@@H]1[C@@H]2C(=O)N(Cc3ccccc3)C(=O)[C@@H]2C2c3ccccc3C=CN21", "note": "(stereo partly specified)", "Potency": "inconclusive: 79.4 µM [inhibitor, partial curve]"}, {"compound": "Cc1nc2c(C(=O)NCc3ccc4c(c3)OCO4)c[nH]n2c(=O)c1Cc1ccccc1F", "Potency": "active: 89.1 µM"}, {"compound": "CCn1cc(C(=O)O)c(=O)c2cc(F)c(N3CCN(S(=O)(=O)c4ccc(NC(=O)OC)cc4)CC3)cc21", "Potency": "inconclusive: 25.1 µM [inhibitor, single point]"}, {"compound": "O=C(c1ccc2nc[nH]c2c1)N1CCN(S(=O)(=O)c2cccc(F)c2)CC1", "Potency": "inconclusive: 39.8 µM [inhibitor, single point]"}, {"compound": "COc1ccc2cc(C(=O)NCc3ccccc3)c(=Nc3ccc(C(=O)O)cc3)oc2c1", "Potency": "active: 31.6 µM"}, {"compound": "CCN(CC(=O)NC1CCS(=O)(=O)C1)S(=O)(=O)c1ccc(F)cc1", "note": "(stereo unspecified)", "Potency": "inconclusive: 31.6 µM [inhibitor, single point]"}, {"compound": "O=C(/C(=C/O)N=Nc1ccccc1Cl)c1ccccc1", "Potency": "inconclusive: 20 µM [inhibitor, partial curve, poor fit]"}, {"compound": "Cc1ccc(NS(=O)(=O)c2ccc(C(=O)N3CC(C)CC(C)C3)cc2)cc1", "note": "(stereo unspecified)", "Potency": "inconclusive: 100 µM [inhibitor, partial curve, poor fit]"}, {"compound": "O=C(O)CN1C(=O)/C(=C/c2ccc(SCc3ccccc3)o2)SC1=S", "Potency": "active: 17.8 µM"}, {"compound": "O=C(O)C1Cc2ccccc2CN1S(=O)(=O)c1ccc(Cl)cc1", "note": "(stereo unspecified)", "Potency": "inconclusive: 44.7 µM [inhibitor, partial curve, poor fit]"}, {"compound": "Oc1ccccc1C=Nc1cccc2ccccc12", "activity change, negative = inhibition": "inactive: -19.4%"}, {"compound": "CN(C)CCCN(C(=O)c1cccc(N2C(=O)CCC2=O)c1)c1nc2cc3c(cc2s1)OCO3", "Potency": "inconclusive: 79.4 µM [inhibitor, partial curve, poor fit]"}, {"compound": "Cc1ccc(C(=O)Nc2nc3nc(-c4ccccc4)cc(=O)n3[nH]2)cc1", "Potency": "active: 44.7 µM and active: 79.4 µM"}, {"compound": "Cc1ccc(NC(=O)CSCC(=O)N(C)Cc2ccc(Cl)c(Cl)c2)cc1", "Potency": "inconclusive: 100 µM [inhibitor, partial curve, poor fit]"}, {"compound": "CC(=O)c1ccc(NC(=O)C2=CC(c3ccc(C)cc3)=NS(=O)(=O)N2C)cc1", "activity change, negative = inhibition": "inactive: -25%"}, {"compound": "Cc1ccc(CN2CCC(c3cc(-c4cccs4)n[nH]3)CC2)cc1", "Potency": "inconclusive: 79.4 µM [inhibitor, partial curve, poor fit]"}, {"compound": "Cc1ccc(S(=O)(=O)Cc2nc(-c3ccc(C(=O)NCc4ccccc4C)cc3)oc2C)cc1", "Potency": "inconclusive: 79.4 µM [inhibitor, partial curve, poor fit]"}, {"compound": "N#Cc1cc(Oc2cccnc2)c(Oc2cccnc2)cc1C#N", "Potency": "inconclusive: 17.8 µM [inhibitor, partial curve, poor fit]"}, {"compound": "O=C1Nc2ccc(I)cc2/C1=C/c1cc(Br)c(O)c(Br)c1", "Potency": "inconclusive: 31.6 µM [inhibitor, single point]"}, {"compound": "CCNc1nc(NCC)n2c(SCC(=O)Nc3ccc(OC(F)F)cc3)nnc2n1", "Potency": "inconclusive: 25.1 µM [inhibitor, partial curve]"}, {"compound": "O=C(Oc1ccc([N+](=O)[O-])cc1)C1CC(=O)N(c2ccc3c(c2)OCCO3)C1", "note": "(stereo unspecified)", "Potency": "inconclusive: 14.1 µM [inhibitor, full curve, poor fit]"}, {"compound": "O=C(Nc1cccc(NC(=O)c2ccccc2[N+](=O)[O-])n1)c1ccccc1[N+](=O)[O-]", "Potency": "inconclusive: 15.8 µM [inhibitor, full curve, poor fit]"}, {"compound": "CCOC(=O)CN(C(=O)c1snc(C(N)=O)c1N)C(C(=O)NC1CCCCC1)c1ccc(F)cc1", "note": "(stereo unspecified)", "Potency": "active: 35.5 µM"}, {"compound": "CC(=O)NNC(=O)c1sc(=S)n2c1[nH]c(=O)c1sccc12", "Potency": "inconclusive: 50.1 µM [inhibitor, partial curve, poor fit]"}, {"compound": "COc1ccc2cnn(Cc3ccccc3)c(=O)c2c1OC", "activity change, negative = inhibition": "inactive: -6.88%"}, {"compound": "CCCC(=O)OCCNc1cc(SCc2ccco2)c2nonc2c1[N+](=O)[O-]", "Potency": "active: 11.2 µM"}, {"compound": "Nc1nc(-c2ccccc2)c(CCCOc2ccc([N+](=O)[O-])cc2)c(=O)[nH]1", "Potency": "inconclusive: 11.2 µM [inhibitor, partial curve, poor fit]"}, {"compound": "CC1(S(=O)(=O)O)CC(=O)c2ccccc2C1=O", "note": "(stereo unspecified)", "Potency": "inconclusive: 100 µM [inhibitor, single point]"}]}]}
